# Assay results taken from PubChem BioAssay (NCI).
#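 Method: 48-hour compound exposure of cells in 96-well plates, five concentrations, linear interpolation of endpoints. Here, GI50 denotes the concentration required for 50% inhibition of growth. At the TGI there is no net growth.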
# Tested on: NCI-H322M lung
# Test: DTP human tumour cell line panel, 48 h
Compound,GI50,TGI
O=C(Nc1ccc(Cl)c(C(F)(F)F)c1)Nc1ccc2c(ccn2C(=O)c2cccc(F)c2)c1,3.26 µM,21.7 µM
CCOP(=O)(OCC)OC[C@]12CCC(C)(C)C[C@H]1C1=CC[C@@H]3[C@@]4(C)C/C(=C\c5cccnc5)[C@H](OP(=O)(OCC)OCC)C(C)(C)[C@@H]4CC[C@@]3(C)[C@]1(C)CC2,1.95 µM,4.41 µM
